PubChem BioAssay AID686978 (National Center for Advancing Translational Sciences (NCATS), 2013)
The campaign covered roughly 420,000 compounds. About 64,000 (15%) were called active. Inconclusive means that the source gave no clear call. Such entries were picked first, then a sample of the others. Calls follow the shape of the dose curve; as a rule, active = well fitted inhibition curve with a large enough effect; inconclusive = small, poorly fitted or top-dose-only effect; inactive = flat fitted curve, though single readings scatter. Potencies of inconclusive entries are left out as doubtful fits.

Test: qHTS for Inhibitors of human tyrosyl-DNA phosphodiesterase 1 (TDP1): qHTS in cells in absence of CPT; also: nearly all actives have a fitted effect of over 55% in size
Settings: DT40 Tdp1-/- hTDP1 cells, no CPT, ATP luminescence, 48 h; activity change, negative = growth inhibition: at 46.2 µM (top of the series)
Summary of the method: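 DT40 Tdp1-/-;hTDP1 cells, no CPT (DMSO vehicle only), 400 cells/well; compounds pin-transferred; ≥48 hr, 37 °C; CellTiter-Glo 30 min RT dark, luminescence read.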
% is scaled to controls: 0 for no effect and ±100 for the full control effect; potency is read from the fitted curve at half-maximal effect; tags tell the direction and shape of the fitted curve.

SMILES | Potency | activity change, negative = growth inhibition
COc1cc(/C=N/NC(=O)c2csc3c2CCCC3)cc(OC)c1O | active: 5.17 µM | 
Cc1ccc(Cn2c(C(=O)O)c(CNCc3ccccc3Cl)c3ccc(C)cc32)cc1 | inconclusive [inhibitor, single point] | 
O=C(CNC(=O)c1cc2ccccc2o1)NCc1cccs1 | inconclusive [inhibitor, single point] | 
CN1/C(=C\C=N\NC(=O)c2cccnc2)C(C)(C)c2ccccc21 | inconclusive [inhibitor, partial curve] | 
CCN(CC)C(CNC(=O)CSc1nnnn1-c1ccc(C)c(C)c1)c1ccco1 (stereo not drawn) |  | inconclusive: -31.8% [inhibitor]
COc1ccc(C)cc1NC(=O)c1nn(C)cc1Br | inconclusive [inhibitor, partial curve, poor fit] | 
COc1ccc(NC(=O)COC(=O)c2ccccc2SCC(=O)N2CCCC2)cc1 | inconclusive [inhibitor, single point] | 
Cc1oc2c(c(C)cc3oc(=O)c(CC(=O)NCCc4ccccc4F)c(C)c32)c1C | inconclusive [inhibitor, single point] | 
CCOC(=O)C1CCN(c2ncnc3c2c(-c2ccccc2)cn3-c2cccc(C)c2)CC1 | active: 23.1 µM | 
O=C(NCC(=O)N(c1ccc(F)cc1)C(C(=O)NC1CCCC1)c1cccnc1)c1ccco1 (stereo not drawn) |  | inactive: 0.396%
CCc1ccc(OCC(=O)N2c3ccccc3CCc3ccccc32)cc1 | inconclusive [inhibitor, single point] | 
Cc1cccc(NC(=O)CCCn2c(C)c3cnn(-c4ccccc4)c(=O)c3c2C)c1C | inconclusive [inhibitor, single point] | 
Cc1nc2ccc(S(=O)(=O)NCC(=O)N(C)Cc3ccccc3)cc2s1 |  | inactive: -0.0612%
O=c1oc(CCCO)cc2ccc(C#Cc3ccsc3)cc12 | active: 18.4 µM | 
Cc1ccccc1-n1c(SCC(=O)Nc2ccc(Cl)cc2F)nnc1-c1cc2occc2n1C | inconclusive [inhibitor, partial curve] | 
CCOC(=O)c1c(C)[nH]c2ccc3c(c12)CN1CCc2cc(OC)ccc2[C@@H]1O3 | active: 7.5 µM | 
Cc1ccc(NC(=O)CS(=O)CC(=O)Nc2cccc(C)c2C)cc1F (stereo not drawn) |  | inactive: -7.08%
CC1CCN(C(=O)COC(=O)c2ccccc2NC(=O)c2ccco2)CC1 | inconclusive [inhibitor, partial curve] | 
Cc1ccc(C)n1-c1nnc(N2CCCC(C(=O)NCc3ccc(Cl)cc3)C2)s1 (stereo not drawn) | active: 9.2 µM | 
O=c1[nH]c(C2CCCN(S(=O)(=O)c3cccc(F)c3)C2)nc2c1nnn2Cc1ccccc1 (stereo not drawn) | inconclusive [inhibitor, single point] | 
Cc1ccc(S(=O)(=O)N2CCN(C(=O)C3CCCO3)CC2)cc1C (stereo not drawn) | inconclusive [inhibitor, single point] | 
CC(=O)NCCc1nc2ccccc2n1CCOc1cccc(C)c1 | inconclusive [inhibitor, partial curve, poor fit] | 
COc1ccc(C2=CC(c3ccc(F)cc3)n3ncc(C(=O)Nc4ccc(C)cc4)c3N2)cc1 (stereo not drawn) | inconclusive [inhibitor, single point] | 

SMILES | Potency | activity change, negative = growth inhibition
CCOC(=O)N1CCN(C(=O)/C=C/c2ccc(OC)cc2)CC1 |  | inactive: 2.53%
Cc1ccc(CN2CCc3nc(N4CCN(c5ncccn5)CC4)ncc3C2)cc1 | inconclusive [inhibitor, single point] | 
COc1ccc(-c2cc(C(=O)Nc3ccc(O)cc3)c3ccccc3n2)cc1OC | active: 1.46 µM | 
O=C(c1ccccc1)n1ccc(-c2cnc(-c3ccccc3)s2)n1 | inconclusive [inhibitor, single point] | 
CCc1ccc(CNC(=O)c2sc3ncccc3c2-n2c(C)ccc2C)cc1 | active: 20.6 µM | 
Cc1ccc(-c2nc3cc(C(C)C)ccc3o2)cc1NC(=O)c1cc2ccccc2o1 | inconclusive [inhibitor, partial curve] | 
CCOc1ccccc1CNS(=O)(=O)c1ccc2c(c1)CCCN2C(C)=O | inconclusive [inhibitor, single point] | 
Cc1cc(C(=O)CN2C(=O)c3ccccc3C2=O)c(C)n1Cc1cccs1 | inconclusive [inhibitor, single point] | 
CC(=O)c1ccc(S(=O)(=O)Nc2ccc(-c3cn4c(n3)SCC4)cc2)cc1 |  | inactive: 15.2%
Cc1ccc2c(C)c(C(=O)N3CCN(c4ccncc4)CC3)oc2c1C | inconclusive [inhibitor, single point] | 
CCCn1c(SCC(=O)NC2CCCCC2)nnc1-c1ccncc1 |  | inactive: -78%
Cc1ccc(N(CC(=O)NCCc2ccc(Cl)cc2)S(=O)(=O)N(C)C)cc1 | inconclusive [inhibitor, full curve, poor fit] | 
O=C(CCCOc1ccccc1)NC(=S)Nc1ccccc1 | inconclusive [inhibitor, single point] | 
Fc1ccc(NC(=S)Nc2cc(-c3ccccc3)[nH]n2)cc1Cl | inconclusive [inhibitor, single point] | 
COc1ccc(S(=O)(=O)NCCOc2ccccc2)cc1-n1cnnn1 |  | inactive: -15.9%
COc1cccc(NC(=O)CSc2nc3c(oc4ccccc43)c(=O)n2Cc2ccco2)c1 | active: 9.2 µM | 
O=C(NCC(=O)N1CCN(S(=O)(=O)c2ccccc2F)CC1)c1ccc2ccccc2c1 |  | inconclusive: -35.3% [inhibitor]
CCOC(=O)c1cc(-c2ccccc2C)nn1Cc1cc(CC)no1 | inconclusive [inhibitor, single point] | 
O=[N+]([O-])c1cccc(S(=O)(=O)N2CCN(c3nc(-c4ccccc4)nc4ccccc34)CC2)c1 |  | inactive: -8.32%
O=C(N/N=C/c1c(Cl)nc2ccccn2c1=O)c1cccnc1 | inconclusive [inhibitor, single point] | 
Cc1ccccc1CN1CCN(C(=O)c2ccco2)CC1 | inconclusive [inhibitor, partial curve] | 
O=C(CCSc1nc(-c2ccco2)cc(C(F)(F)F)n1)Nc1cccc(O)c1 | inconclusive [inhibitor, partial curve] | 
CCOC1=C2[C@@H](CN(S(=O)(=O)c3ccc(C)cc3)[C@H]2c2cccc3ccccc23)[C@H]2C(=O)NC(=O)[C@H]2C1 | inconclusive [inhibitor, single point] | 

SMILES | Potency | activity change, negative = growth inhibition
NNC(=O)c1ccc(COc2cccc3ccccc23)o1 | inconclusive [inhibitor, single point] | 
CN(C)C(=O)c1cc(-c2ccccc2)no1 |  | inactive: -5.43%
COc1cccc(C(=O)N2CCN(Cc3ccccc3Br)CC2)c1 | inconclusive [inhibitor, single point] | 
NS(=O)(=O)c1ccc(S(=O)(=O)N2CCN(c3nc(-c4ccccc4)nc4ccccc34)CC2)cc1 | inconclusive [inhibitor, single point] | 
CCc1nc2ccccc2c(=O)n1NCCc1ccccc1 | inconclusive [inhibitor, single point] | 
COc1cc(-c2noc(CN3CCN(c4ccccc4)CC3)n2)cc(OC)c1OC | active: 20.6 µM | 
COC(=O)CCSCC(=O)N1N=C(c2ccc(OC)cc2)CC1c1cccc(OC)c1OC (stereo not drawn) | inconclusive [inhibitor, single point] | 
CC(=O)Nc1ccc(C(=O)CSc2cc(C)c3cccc(C)c3n2)cc1 | inconclusive [inhibitor, partial curve] | 
CN(/N=C/c1c[nH]c2ccccc12)c1cnn(-c2ccc(F)c(Cl)c2)c(=O)c1Cl | active: 25.9 µM | 
CC(C)CCNC(=O)CCCN1C(=O)c2ccccc2Sc2ncccc21 | inconclusive [inhibitor, single point] | 
CCOc1ccc2nc(N/C(N)=N/S(=O)(=O)c3ccc(C)cc3)nc(C)c2c1 | inconclusive [inhibitor, single point] | 
Cc1ccc(S(=O)(=O)N(CCC(=O)NCc2ccc(S(N)(=O)=O)cc2)c2ccccc2)cc1 |  | inactive: -13.2%
COc1ccc(NC(=O)C2CC(c3c(F)cccc3Cl)=NO2)cc1 (stereo not drawn) | inconclusive [inhibitor, partial curve] | 
O=C(COC(=O)C1CCN(S(=O)(=O)c2c(Cl)cccc2Cl)CC1)NCc1ccco1 |  | inactive: -9.76%
COc1ccccc1[C@@H]1C(c2ccccc2)=NN(c2ccccc2)[C@H]1C(=O)N1CCOC1=O | inconclusive [inhibitor, single point] | 
CCc1ccc(C2c3c(-c4ccccc4O)n[nH]c3C(=O)N2Cc2ccncc2)cc1 (stereo not drawn) | active: 13 µM | 
COc1ccccc1C(=O)NCCC(=O)NCC(c1ccco1)N1CCCCC1 (stereo not drawn) |  | inactive: -8.25%
COc1cc(OC)c(OC)cc1/C=C1/C(=O)N=C(N)N1C | inconclusive [inhibitor, single point] | 
Cc1cn2c(=O)cc(COC(=O)c3cccc(NC(=O)COc4ccccc4Cl)c3)nc2s1 | inconclusive [inhibitor, partial curve] | 
CC1(Oc2cccc(F)c2)CCN(Cc2ccc(-c3ccccn3)cc2)C1 (stereo not drawn) | active: 18.4 µM | 
COc1cc(OC)cc(C(=O)Oc2c(Sc3ccccc3)c(C)nn2C(C)(C)C)c1 | inconclusive [inhibitor, partial curve] | 
Cc1ccc2c(c1)C1CN(C)CCC1N2C(=S)NC(=O)c1ccc(Br)cc1 (stereo not drawn) | inconclusive [inhibitor, single point] | 
